The term Kd denotes the free concentration of one partner at which half of the binding sites on the other are occupied at equilibrium, for simple one-to-one binding.

Consider 2 molecules from patent US20210269542A1 (POTENZA THERAPEUTICS, published 2021).

For experiment [1], the target named is T1, human GITR-Fc (human, UniProt Q9Y5U5 26-162).
T1 construct: also called recombinant hGITR; wild type human GITR-Fc
T1 sequence: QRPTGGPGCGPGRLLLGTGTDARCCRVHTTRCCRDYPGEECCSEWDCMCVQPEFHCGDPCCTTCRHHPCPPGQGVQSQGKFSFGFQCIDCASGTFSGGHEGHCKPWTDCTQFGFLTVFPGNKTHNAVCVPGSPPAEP
As to the kind of experiment: BLI Octet, ABP on AHC sensor, 25 nM antigen, single concentration. Background: BLI is a label-free optical method that tracks binding on a fibre tip over time.

The target of experiment [2] is T2, cyno GITR-Fc (cynomolgus monkey).
T2 construct: also called cGITR; cynomolgus GITR
T2 chain: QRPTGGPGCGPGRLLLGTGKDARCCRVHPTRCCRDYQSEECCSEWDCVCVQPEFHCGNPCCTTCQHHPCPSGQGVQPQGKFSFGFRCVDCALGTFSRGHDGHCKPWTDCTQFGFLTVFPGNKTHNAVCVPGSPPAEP
The description is as above.

Experiment [3] concerns the target T3, human GITR T43R-Fc (human, UniProt Q9Y5U5 26-162).
T3 construct: also called hGITR-T43R; Human GITR-Fc T43R
T3 chain: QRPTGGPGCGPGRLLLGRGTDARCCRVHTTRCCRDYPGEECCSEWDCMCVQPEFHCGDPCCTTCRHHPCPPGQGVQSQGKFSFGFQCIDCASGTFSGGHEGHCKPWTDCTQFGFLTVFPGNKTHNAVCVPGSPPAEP
Described as above.

The target in experiment [4] is T4, mouse GITR-Fc (mouse, UniProt O35714 20-153).
T4 construct: also called mGITR
T4 sequence: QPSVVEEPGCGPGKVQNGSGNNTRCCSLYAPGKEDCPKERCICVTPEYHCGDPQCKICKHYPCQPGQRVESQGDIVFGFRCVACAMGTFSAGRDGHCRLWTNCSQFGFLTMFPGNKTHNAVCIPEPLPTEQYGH
The experiment is described as above.

Experiment [5] has as its target T1, human GITR-Fc. As to the kind of experiment: BLI Octet, ABP on AHC sensor, antigen 50-0.78 nM, multi-concentration, n = 3.
In experiment [6] the target is T2, cyno GITR-Fc. The experiment is described as above.
Experiment [7] has as its target T5, human GITR expressed on cells (human, UniProt Q9Y5U5 26-241).
T5 sequence: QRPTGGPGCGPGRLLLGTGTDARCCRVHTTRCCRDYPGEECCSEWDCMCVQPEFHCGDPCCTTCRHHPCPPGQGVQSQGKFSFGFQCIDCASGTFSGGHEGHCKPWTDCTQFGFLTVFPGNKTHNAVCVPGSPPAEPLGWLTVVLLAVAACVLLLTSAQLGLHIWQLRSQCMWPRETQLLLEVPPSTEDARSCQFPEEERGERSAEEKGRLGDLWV
Nature of the experiment: cell-based or functional assay.

In experiment [8] the target is T5, human GITR expressed on cells. As to the kind of experiment: cell-based or functional assay. The source holds these as a separate data set.
Experiment [9] deals with T6, cynomolgus monkey GITR expressed on HT1080 cells (cynomolgus monkey).
T6 chain: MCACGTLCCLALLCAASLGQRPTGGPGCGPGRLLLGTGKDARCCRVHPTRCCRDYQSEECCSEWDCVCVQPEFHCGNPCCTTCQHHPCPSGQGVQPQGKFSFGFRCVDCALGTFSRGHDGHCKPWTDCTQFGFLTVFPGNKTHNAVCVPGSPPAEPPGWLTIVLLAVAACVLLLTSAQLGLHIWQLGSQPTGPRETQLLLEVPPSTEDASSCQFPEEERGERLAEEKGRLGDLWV
As to the kind of experiment: cell-based or functional assay.

Experiment [10] addresses T3, human GITR T43R-Fc. As to the kind of experiment: BLI Octet, ABP on AHC sensor, antigen 50-0.78 nM, multi-concentration, n = 1.

B1: ABP5 (antibody, human IgG4 S228P, kappa)
heavy: QVQLQESGPGLVKPSETLSLTCAVSGYSISSGAGWGWIRQPPGKGLEWIGLIVHSGSTYYNPSLKSRVTISVDTSKNQFSLKLSSVTAADTAVYYCVLESVRGYGDYGGHHAFDIWGQGTMVTVSSASTKGPSVFPLAPSSKSTSGGTAALGCLVKDYFPEPVTVSWNSGALTSGVHTFPAVLQSSGLYSLSSVVTVPSSSLGTQTYICNVNHKPSNTKVDKRVEPKSCGGGGSQVQLQESGPGLVKPSETLSLTCAVSGYSISSGAGWGWIRQPPGKGLEWIGLIVHSGSTYYNPSLKSRVTISVDTSKNQFSLKLSSVTAADTAVYYCVLESVRGYGDYGGHHAFDIWGQGTMVTVSSASTKGPSVFPLAPCSRSTSESTAALGCLVKDYFPEPVTVSWNSGALTSGVHTFPAVLQSSGLYSLSSVVTVPSSSLGTKTYTCNVDHKPSNTKVDKRV[human IgG4 Fc with S228P (EU numbers) left out]
light: DIQMTQSPSSLSASVGDRVTITCRASKSIDSYLNWYQQKPGKAPKLLIYAASSLQSGVPSRFSGSGSGTDFTLTISSLQPEDFATYYCQQEYNTPPTFGGGTKVEIKRTVAAPSVFIFPPSDEQLKSGTASVVCLLNNFYPREAKVQWKVDNALQSGNSQESVTEQDSKDSTYSLSSTLTLSKADYEKHKVYACEVTHQGLSSPVTKSFNRGEC
notes: TM format, N-terminal Fab: VH + IgG1 CH1 + GGGGS + VH + IgG4 S228P; heavy chain with or without C-terminal Lys; also called ABPS
Consider B1, for which the Kd is 0.57 nM in experiment [1]; 1.21 nM in experiment [2]; 0.7 nM in experiment [3]; 0.12 nM in experiment [5]; 1.1 nM in experiment [6]; 0.073 nM in experiment [10]. Also, the binding result in [4] is recorded as “no binding (tested: 25 nM)”. The “% Activity Compared to GITRL, Jurkat cells expressing human GITR” value in experiment [7] worked out at 104%. Besides, in experiment [7], the “EC50, Jurkat cells expressing human GITR” value amounted to 0.25 nM. In addition, the “% Maximum IL-8 Induction Relative to GITRL in human HT1080” value in experiment [8] worked out at 95%. The “Average EC50 in Human HT1080 (IL-8 induction)” value in [8] was found to be 107 pM. In addition, in [9], the “% Maximum IL-8 Induction Relative to GITRL in cynomolgus HT1080” value is 103%. Further, the “Average EC50 in cynomolgus HT1080 (IL-8 induction)” value in experiment [9] was determined as 62 pM.

B2: ABP1 (antibody, human IgG4 S228P, kappa)
heavy: QVQLQESGPGLVKPSETLSLTCAVSGYSISSGLGWGWIRQPPGKGLEWIGGIYESGSTYYNPSLKSRVTISVDTSKNQFSLKLSSVTAADTAVYYCAHERVRGYGDYGGHHAFDIWGQGTMVTVSSASTKGPSVFPLAPSSKSTSGGTAALGCLVKDYFPEPVTVSWNSGALTSGVHTFPAVLQSSGLYSLSSVVTVPSSSLGTQTYICNVNHKPSNTKVDKRVEPKSCGGGGSQVQLQESGPGLVKPSETLSLTCAVSGYSISSGLGWGWIRQPPGKGLEWIGGIYESGSTYYNPSLKSRVTISVDTSKNQFSLKLSSVTAADTAVYYCAHERVRGYGDYGGHHAFDIWGQGTMVTVSSASTKGPSVFPLAPCSRSTSESTAALGCLVKDYFPEPVTVSWNSGALTSGVHTFPAVLQSSGLYSLSSVVTVPSSSLGTKTYTCNVDHKPSNTKVDKRV[human IgG4 Fc with S228P (EU numbers) left out]
light: [about 100 residues left out][about 120 residues left out]
notes: Tetravalent monospecific (TM) format, N-terminal Fab: VH + IgG1 CH1 + GGGGS + VH + IgG4 S228P; heavy chain with or without C-terminal Lys; also called ABP1 IgG4 TM
Regarding B2, the Kd was determined as 0.77 nM in experiment [1]; 0.88 nM in experiment [2]; 0.94 nM in experiment [3]; 0.32 nM in [5]; 0.62 nM in [6]; 0.53 nM in experiment [10]. Besides, the binding result in experiment [4] is recorded as “no binding (tested: 25 nM)”. The “% Activity Compared to GITRL, Jurkat cells expressing human GITR” value in [7] was found to be 104%. Moreover, the “EC50, Jurkat cells expressing human GITR” value in experiment [7] is 0.3 nM. Besides, in [8], the “% Maximum IL-8 Induction Relative to GITRL in human HT1080” value was 97%. In addition, in experiment [8], the “Average EC50 in Human HT1080 (IL-8 induction)” value was found to be 118 pM. Besides, the “% Maximum IL-8 Induction Relative to GITRL in cynomolgus HT1080” value in [9] was determined as 91%. Further, the “Average EC50 in cynomolgus HT1080 (IL-8 induction)” value in experiment [9] stood at 104 pM.
